The other results are listed elsewhere or left out. The full chains were built here from the parent and the listed change. Inactive controls read about 0.05.
B1: TEV protease; numbered along this chain (parent)
chain: MGESLFKGPRDYNPISSSICHLTNESDGHTTSLYGIGFGPFIITNKHLFRRNNGTLVVQSLHGVFKVKDTTTLQQHLVDGRDMIIIRMPKDFPPFPQKLKFREPQREERICLVTTNFQTKSMSSMVSDTSCTFPSGDGIFWKHWIQTKDGQCGSPLVSTRDGFIVGIHSASNFTNTNNYFTSVPKNFMELLTNQEAQQWVSGWRLNADSVLWGGHKVFMVKPEEPFQPVKEATQL

Variants of: B1
Assay: raw area under fraction-flipped curve 0-4 h after induction (AUC4h, not background-subtracted), DNA-recorder readout of cleavage of the substrate (dimensionless); higher = more cleavage of the substrate by the protease variant
Conditions: temperature: 34 °C; time window: 0-4 h after rhamnose induction
Experimental: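 In vivo DNA recorder in E. coli TOP10(DE3) ΔrhaA at 34 °C. Each TEVp single-site mutant (parent TEVp 0) is paired with a single-site variant of the 7-mer TEVs (canonical ENLYFQ|S). The substrate sits between flexible linkers in a Bxb1-sfGFP-TEVs-SsrA fusion, so cleavage stabilises Bxb1 and speeds flipping of a recombination array, read by NGS. The value is the raw area under the fraction-flipped curve over 0-4 h after rhamnose induction (AUC4h), with ≥20 reads per time point. It is not background-subtracted; inactive controls average about 0.047.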
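Note: Bxb1 expression induced with 0.2% (w/v) L-rhamnose at OD600 near 0.5, cultures sampled hourly, flipped fraction per protease–substrate barcode pair counted by paired-end Illumina sequencing.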

Variant	area with substrate ANLYFQS	area with substrate CNLYFQS	area with substrate GNLYFQS	area with substrate HNLYFQS	area with substrate LNLYFQS	area with substrate MNLYFQS	area with substrate NNLYFQS	area with substrate PNLYFQS	area with substrate SNLYFQS	area with substrate TNLYFQS	area with substrate WNLYFQS	area with substrate KNLYFQS	area with substrate VNLYFQS	area with substrate YNLYFQS	area with substrate DNLYFQS	area with substrate FNLYFQS	area with substrate INLYFQS	area with substrate RNLYFQS	area with substrate QNLYFQS
I42N	0.0642	0.0467	0.0392	0.0462	0.053	0.0414	0.0419	0.0276	0.0443	0.0397	0.0347	–	–	–	–	–	–	–	–
F38M	0.0622	0.0637	0.0554	0.055	0.0701	0.0579	0.0676	0.0642	0.0629	0.0626	0.0321	0.0622	0.0563	0.054	–	–	–	–	–
I139Y	0.0754	–	–	0.0688	0.0595	–	0.0668	0.0655	–	0.0555	0.063	0.0698	0.0442	0.0368	0.0686	0.0793	0.06	–	–
L77D	0.0612	0.0607	0.0596	0.0549	0.0681	–	0.099	0.0531	–	0.059	0.0548	0.0607	0.051	0.0881	–	0.0633	0.0719	0.0816	–
L77V	0.0578	0.0672	0.0513	0.0646	0.0667	–	0.0587	0.0676	–	0.0603	0.0658	–	–	0.0648	–	0.0616	0.0993	–	–
F92A	0.0879	0.0617	0.0771	0.0778	–	0.0676	–	0.0696	0.0611	0.0464	0.0653	0.0711	–	0.0709	–	0.0585	–	–	–
G28A	0.0603	–	0.0765	0.0602	0.0582	0.0625	0.0258	0.064	–	0.0709	0.0575	0.0627	–	0.0593	0.0635	0.0749	0.0569	–	–
Q59Y	0.0689	0.0608	–	0.047	0.0692	0.0593	–	–	0.088	–	0.0637	–	–	–	–	0.0558	–	–	–
I86K	0.0248	0.0144	–	0.0293	–	0.0408	–	–	0.037	0.0368	–	–	–	0.0419	–	–	–	0.028	–
K221D	0.0564	0.0625	–	0.0457	0.0595	–	–	0.0581	0.0557	–	0.0854	0.079	0.0615	0.0483	–	0.0568	0.0594	0.0228	–
P14S	0.0602	0.0766	0.065	0.0608	0.0628	0.066	0.0781	0.0663	0.0594	0.0653	0.0621	0.0629	0.0639	0.0565	–	0.049	0.0574	–	–
L190G	0.0642	–	0.0608	0.0583	0.0594	–	0.0743	0.0576	–	0.0579	–	0.0628	0.08	–	0.0725	–	0.0739	–	–
L190W	0.0588	0.0603	0.0484	0.0558	–	0.048	0.0551	0.0569	0.0569	0.0598	0.0488	–	0.0502	0.065	–	–	0.0583	0.0633	–
I110M	0.0488	0.0511	0.0622	0.0484	–	0.0571	0.0509	0.0635	0.0589	0.0541	–	0.061	–	–	–	–	0.0871	–	–
S16W	0.0588	–	0.0597	0.0706	0.064	0.0694	0.075	0.0695	0.0464	0.0594	0.0584	–	0.0891	–	–	0.0684	0.0392	–	0.0791
I164P	0.0411	0.0576	–	0.0497	0.0506	0.0454	0.0524	0.0564	–	0.0524	0.045	0.0575	–	0.0414	–	–	0.0597	–	0.0678
N53R	0.08	0.0541	0.0744	0.0522	0.07	–	0.0601	0.0722	0.0685	0.0702	0.0528	0.0539	0.0787	–	–	0.0544	0.0386	–	–
A207E	0.101	0.0576	–	–	0.0582	–	–	0.0714	0.0673	0.1	–	0.0517	–	–	–	–	–	–	–
A207Y	0.0611	0.0509	–	–	0.0699	–	0.0815	–	–	0.0699	–	–	–	–	–	–	0.0528	–	–
G54T	0.0701	–	0.0375	0.0581	0.0536	0.0595	0.043	–	0.0576	0.0643	0.071	0.0565	–	0.0486	0.0626	0.018	0.0478	–	–
S17R	0.0577	0.0664	0.0636	0.0682	0.0553	–	0.0692	0.0649	–	0.0658	0.0466	0.0465	–	0.0887	–	–	0.0554	–	–
S17N	0.0626	0.0492	0.0709	0.0491	–	0.086	0.0675	0.0325	–	0.0781	0.0587	0.0642	0.0718	0.0519	–	–	0.0692	0.065	0.101
S154G	0.0668	0.0583	0.0545	0.0657	–	0.058	–	0.0698	–	0.0559	0.0579	–	0.0443	–	–	0.0571	–	–	–
N175P	0.0631	–	0.0631	0.0538	–	–	0.0593	0.0668	–	0.0434	–	0.0673	–	0.0584	0.0776	–	–	–	0.0606
N175T	0.051	–	–	–	–	–	–	0.0592	0.0677	0.0433	0.0594	0.0798	0.0665	0.0849	0.061	–	–	–	–
S123V	0.0679	–	0.069	0.0576	0.0753	–	0.0695	0.0724	0.0535	0.0505	0.0639	0.0778	–	–	0.0644	–	0.0766	–	–
T30K	0.0705	0.0737	–	0.0713	–	0.0553	0.0528	–	0.0579	0.0689	0.0525	–	–	0.0252	–	0.0529	–	–	–
F163L	0.0533	0.0678	0.047	0.0621	–	–	–	0.0728	0.0852	0.0776	0.0811	0.0716	–	–	–	–	0.0642	–	–
R106W	0.0733	0.0678	0.0559	0.056	0.0719	0.0648	0.075	0.0713	0.0921	0.0653	0.0715	0.0672	0.0681	0.0543	–	0.0665	0.0641	–	0.0951

Reference: the supplement of paper PMC12217912
